The values below come from paper PMC12136788.

The other results are listed elsewhere or left out.

First the molecules themselves.
B1: chr1:39494564:39494565:+_ENSG00000168653_ENST00000372967|hu_hu|hu_hu_hu_mus_True|58_78 (ssRNA)
RNA: GGGAGUUCUACAGUCCGACGAUCAUGCAUUCGCCUCAUCGUUUUGUACCGAAGCAAACACUCUACGAAGUCAUCGAAUUCUAUCUUGCACUCCUUUUUCGCCCGGGUCCCACCGAUCCCGUGUGCACACUCUAUCCACUCUUUCAACAGAGGAUUGAGCAUCA
B2: 140292093_140292213_7305_3pUTR_ENSMUSG00000031285_ENSMUST00000033642|mouse|control|control (ssRNA)
RNA: GGGAGUUCUACAGUCCGACGAUCUUAAACAAAUUGUUCCUGCCCACCCCCAUCUCCACUAAGCCCAACCAAAUGACAGGAACAAUUACCUGUGGUCUCUCAUGACAUUAUAUUGCAGCUUUUCGAAGCUAUGAGCAAAUUUAACAACAGAGGAUUGAGCAUCA
B3: chr9:120860063:120860064:+_ENSMUSG00000006932_ENSMUST00000007130|mus_mus|FALSE|FALSE (ssRNA)
RNA: GGGAGUUCUACAGUCCGACGAUCCUGCAUGCCCUCAUCUAGCGUCUCAGGGAACAUGGCAGCUCGGACCCUCUGAGCCCUAGUCAUUGCAUACUGCCCGUCAAUAUCAGCUACUUGCUCUUGCGUGAAGGACUGGGAAAAGCCCAACAGAGGAUUGAGCAUCA
B4: 123982989_123983109_2230_CDS_ENSG00000168916_ENST00000504926|human|control|control (ssRNA)
RNA: GGGAGUUCUACAGUCCGACGAUCCUUCAUUCCCUGCGUGCUCCCACUAUUUCCAGCUGCAGGGGCACCGACCUGCCCAGGGUGCAUGUAACUUGGAGAAUAAUAAGGAUCAUAGCUGUGGUAAUAGGGAGAAUGGGACUCUUUCAACAGAGGAUUGAGCAUCA
B5: chr11:97371553:97371554:-_ENSMUSG00000038453_ENSMUST00000107596|mus_mus|motif|central (ssRNA)
RNA: GGGAGUUCUACAGUCCGACGAUCCACAAUCCCAUACAAAUUCCUUCCAGGACACACUCGCGCAGUAACCAAAUUGAAGAACGGGAACUACGCAAAGCCCACGGGGGCCUUGCCUGAGCUCGUGGGGCAGCCCCUGCAUGAAUACAACAGAGGAUUGAGCAUCA
B6: chr17:7144716:7144717:-_ENSG00000170296_ENST00000577035|hu_hu|FALSE|FALSE (ssRNA)
RNA: GGGAGUUCUACAGUCCGACGAUCCUGGUACAGCUGACCCAUUGUGGCACUGGUGGGUGGAAUGACAUUGUUGACAAAGAAAAACAAGGCAUCCUCAGCUCGGAGAUGAAUUCGCUUCCGGAUCAAGAAGUAGAACUGACCAACCAACAGAGGAUUGAGCAUCA
B7: 12959060_12959180_2252_3pUTR_ENSG00000187079_ENST00000361905|human|control|control (ssRNA)
RNA: GGGAGUUCUACAGUCCGACGAUCAAAAAGAGAACUAAAUACAUUUGUAUAAAGGCUGUAAAUGUCCCAUGGCAAAUGCUCUGUCUCAAUAUUUUCUACCACAAUUAGAAACAGGGCUCUGCAGAGAGAGACUUGGGUUGUUCACAACAGAGGAUUGAGCAUCA
B8: chr7:148679106:148679107:+_ENSMUSG00000025511_ENSMUST00000117634|mus_mus|motif|central (ssRNA)
RNA: GGGAGUUCUACAGUCCGACGAUCCCUGCCUGGAGCACCAAGAUCAUCGUGGGCCUUGAGCAGACUGGGCCUGCCCCCAACCGGGCAACCAUGCAAGGCUGGGAACCCCAUCCUGUGUGAACACUGGAAGGUAUAUAUGGAUAUCAACAGAGGAUUGAGCAUCA
B9: chr14:66974463:66974464:+_ENSMUSG00000022044_ENSMUST00000074523|mus_hu|mus_mus_mus_hu_False|28_48 (ssRNA)
RNA: GGGAGUUCUACAGUCCGACGAUCUUGUAGGACGACUUAUUCAGGGGAUCGGCCAGGAAGCAGGAGCAGAACAAGGACACCAGCGGGAGUUCCUUCAUCUUCUCUUUAUAGGCUGCAAGGGUCAUGUUUCUGGGAUCUGGUGGCCAACAGAGGAUUGAGCAUCA
B10: chr12:121221538:121221539:-_ENSG00000157837_ENST00000353487|hu_hu|FALSE|FALSE (ssRNA)
RNA: GGGAGUUCUACAGUCCGACGAUCAGGUGAGCAGGGUCUUGUUAAAUACUGGCACAUCGGGAGGAGAAGAAAAGCAAAAGCUAUCGUUGCAAGAACUGCUGUACAUAUUGUAAAAACUACUUGAACUGAGUCAAAGAAGAAGAACAACAGAGGAUUGAGCAUCA
B11: 153790636_153791375_792_3pUTR_ENSG00000143614_ENST00000368655|human|control|control (ssRNA)
RNA: GGGAGUUCUACAGUCCGACGAUCACAACUGGAGUCUUCUGGACCACAUUCUCUUUCUGUAGCUGACUCUGUCUCAGUUUCUUUAACAGGACCAGUCGGGCUUCUUCCAAUCGUAGCUCAUCCCUCAGCUGCUUGAUAAGCUGCCAACAGAGGAUUGAGCAUCA
B12: chr1:46159212:46159213:+_ENSG00000159596_ENST00000372025|hu_mus|hu_hu_hu_mus_True|1_88 (ssRNA)
RNA: GGGAGUUCUACAGUCCGACGAUCUCUGAUCCCUCCCAAGAAAGCUAGGAAACUGGCUCCAUAAGCCAUCUGAGUGAAAGCUAGGACGGGGAUAUAAGACUUUGUUAUUACCAUGAGAAGUGGGGGAGCAGUAAAGGGGAUUAGCAACAGAGGAUUGAGCAUCA
B13: chr2:202488911:202488912:-_ENSG00000155755_ENST00000286196|hu_mus|hu_hu_hu_mus_False|38_98 (ssRNA)
RNA: GGGAGUUCUACAGUCCGACGAUCAUUGAAACAUUUUCAUAAUAUUGCAGUAGCAUUUCAGCAUUAUGUAACAAAAGCUCAAUUGUAAAUACAUGUAUAUACAUCUUAUACACUUAAAAACACGAGUGGGGAGCGCAGGCGCCACAACAGAGGAUUGAGCAUCA
B14: chr1:245006428:245006429:+_ENSG00000203667_ENST00000366528|hu_hu|FALSE|FALSE (ssRNA)
RNA: GGGAGUUCUACAGUCCGACGAUCGAUUGUUCAAUUGCUGCUGCUGCCGUUGUGUUUUCUUUCAGGAUCGAGGUGGGUACCUUCAUAUAAUAUCUUCUUUUUAAUUUCUUCUCUGGCAAUUCUUUCCUGGAUUCUUUGCUUUGCCAACAGAGGAUUGAGCAUCA

For this experiment, the target named is T1, UNK ZnF1-3 (human, UniProt Q9C0B0 31-174).
T1 sequence: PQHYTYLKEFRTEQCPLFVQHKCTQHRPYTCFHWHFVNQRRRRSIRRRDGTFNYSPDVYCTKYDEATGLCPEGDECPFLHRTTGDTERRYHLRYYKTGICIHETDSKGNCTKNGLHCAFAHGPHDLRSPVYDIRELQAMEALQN
Description: nsRBNS (natural sequence RNA bind-n-seq); RBNS binding buffer (assumed for nsRBNS): 25 mM Tris pH 7.5, 150 mM KCl, 3 mM MgCl2, 0.01% Triton X-100, 500 ug/ml BSA, 20 U/ml SUPERase-In, 4 C; UNK is unkempt and MSI1 is Musashi-1; names of the RNAs are library labels; protein concentration not given here; high values mean tight binding.
For the molecule B1, the binding signal is 0.663 enrichment R. Molecule B2 gave a binding signal of 1.16 enrichment R. B3: the binding signal was determined as 1.05 enrichment R.

In turn, B4 came in with a binding signal of 1.38 enrichment R. With B5 the figure was 1.09 enrichment R; with B6, 1.77 enrichment R; with B7, 1.02 enrichment R. In turn, B8 yielded a binding signal of 1.11 enrichment R.

Take B9: the binding signal was 2.35 enrichment R. With B10 the figure was 2.43 enrichment R; with B11, 0.378 enrichment R; with B12, 1.59 enrichment R. For B13, the binding signal worked out at 0.861 enrichment R. In turn, B14 returned a binding signal of 0.643 enrichment R.
